Source: patent US20260176310A1 (NAVIGO PROTEINS, published 2026)

T1: mFAP-Fc (mouse, UniProt P97321 26-761)
T1 construct: extracellular domain; Made in house in ExpiCHO cells; also called mFAP-Fc-His; mouse FAP; not shown: IgG1-Fc
T1 sequence (looked up): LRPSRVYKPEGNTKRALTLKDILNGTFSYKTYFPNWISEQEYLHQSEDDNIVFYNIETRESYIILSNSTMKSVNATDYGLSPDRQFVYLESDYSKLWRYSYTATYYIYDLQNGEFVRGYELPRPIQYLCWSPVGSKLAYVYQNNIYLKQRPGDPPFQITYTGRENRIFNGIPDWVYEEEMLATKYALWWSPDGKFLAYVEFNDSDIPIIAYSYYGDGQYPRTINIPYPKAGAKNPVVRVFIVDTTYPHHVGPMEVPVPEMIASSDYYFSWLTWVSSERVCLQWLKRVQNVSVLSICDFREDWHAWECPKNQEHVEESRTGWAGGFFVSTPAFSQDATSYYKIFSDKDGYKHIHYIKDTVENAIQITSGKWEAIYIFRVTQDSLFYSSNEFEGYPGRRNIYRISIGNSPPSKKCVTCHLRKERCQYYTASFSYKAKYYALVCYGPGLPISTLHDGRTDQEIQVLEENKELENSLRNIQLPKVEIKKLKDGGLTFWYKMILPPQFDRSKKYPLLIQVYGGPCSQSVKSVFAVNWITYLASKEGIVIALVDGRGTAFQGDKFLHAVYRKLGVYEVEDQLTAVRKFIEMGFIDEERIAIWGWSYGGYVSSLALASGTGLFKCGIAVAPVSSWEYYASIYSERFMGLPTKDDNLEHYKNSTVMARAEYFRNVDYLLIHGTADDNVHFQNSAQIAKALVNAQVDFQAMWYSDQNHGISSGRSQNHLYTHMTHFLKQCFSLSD

T2: hFAP-Fc (human, UniProt Q12884 26-760)
T2 construct: extracellular domain; Made in house in Expi293-F cells; also called hFAP-Fc-His; human FAP; not shown: IgG1-Fc
T2 sequence (looked up): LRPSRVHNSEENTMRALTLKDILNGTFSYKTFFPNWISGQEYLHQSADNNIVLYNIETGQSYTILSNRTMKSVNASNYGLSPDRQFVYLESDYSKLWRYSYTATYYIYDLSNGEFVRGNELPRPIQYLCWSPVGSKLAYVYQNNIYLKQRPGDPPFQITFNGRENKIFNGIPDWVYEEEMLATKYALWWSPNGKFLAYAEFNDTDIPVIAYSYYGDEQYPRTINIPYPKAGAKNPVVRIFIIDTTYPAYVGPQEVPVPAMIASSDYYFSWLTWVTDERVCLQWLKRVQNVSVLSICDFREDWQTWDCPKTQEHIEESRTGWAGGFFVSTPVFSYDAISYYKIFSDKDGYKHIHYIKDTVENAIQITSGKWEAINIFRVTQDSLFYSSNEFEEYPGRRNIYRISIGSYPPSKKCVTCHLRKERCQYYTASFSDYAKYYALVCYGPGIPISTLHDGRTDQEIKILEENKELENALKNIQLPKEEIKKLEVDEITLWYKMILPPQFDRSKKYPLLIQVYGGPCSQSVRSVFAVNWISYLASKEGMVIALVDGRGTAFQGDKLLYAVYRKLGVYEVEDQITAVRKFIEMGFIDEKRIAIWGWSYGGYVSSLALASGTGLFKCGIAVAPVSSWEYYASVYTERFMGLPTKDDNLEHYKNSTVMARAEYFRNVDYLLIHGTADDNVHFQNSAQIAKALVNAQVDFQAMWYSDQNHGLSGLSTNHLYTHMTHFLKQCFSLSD


Experiments:
mFAP-Fc = target: T1, mFAP-Fc; test: SPR, Fc-tagged target captured on protein A
Description: (§1) Recombinant protein A was immobilized on a High Capacity Amine sensor chip (Bruker) after NHS/EDC activation resulting in approx. 2000 RU with a Sierra SPR-32 system (Bruker). The chip was equilibrated with SPR running buffer (PBS 0.05%, Tween pH 7.3). Injection of ethanolamine after ligand immobilization was used to block unreacted NHS groups. The Fc-tagged FAP and CD26 target molecules were injected with 60 nM followed by the injection of FAP binding proteins. Upon binding, target analyte was accumulated on the surface increasing the refractive index. This change in the refractive index was measured in real time and plotted as response or resonance units versus time. The FAP binding proteins were applied to the chip in serial dilutions with a flow rate of 30 μl/min. The association was performed for 120 seconds and the dissociation for 180 seconds. After each run, the chip surface was regenerated with 30 μl regeneration buffer (10 mM glycine pH 2.0) and equilibrated with running buffer. Binding studies were carried out by the use of the Sierra SPR-32 system (Bruker); data evaluation was operated via the Sierra Analyser software, provided by the manufacturer, by the use of the Langmuir 1:1 model (RI=0). Evaluated dissociation constants (KD) were standardized against the immobilized protein and indicated.

[1] = target: T3, hCD26 expressed on HEK293-hCD26 cells (human, UniProt P27487 1-766); test: flow cytometry on HEK293-hCD26 cells
T3 construct: whole, on cells
Description: (§2) Flow cytometry was used to analyze the interaction of FAP binding proteins with cell surface-exposed hFAP and mFAP. FAP overexpressing human embryonic kidney cell line HEK293, CD26-overexpressing HEK293-cells, native FAP expressing cell line Wi38 and empty vector control HEK293-pEntry cells were used. The anti-hFAP antibody (R&D Systems, MAB3715-100) with a concentration of 1 μg/ml in combination with anti-mouse-IgG-Alexa488 (Invitrogen, A10680) with a 1:1000 dilution was used as positive control for hFAP-expressing cells. Anti-mFAP antibody (R&D Systems, MAB9727) with a concentration of 1 μg/ml in combination with anti-rat-IgG-Alexa488 (Invitrogen, A11006) with a dilution of 1:1000 was used as positive control for mFAP-expressing cells.
(§3) Cells were trypsinized and resupended in medium containing FCS, washed and stained in pre-cooled FACS blocking buffer (3% FCS/PBS). A suspension with a cell concentration of 1×10⁶ cells/ml was prepared for cell staining and filled with 100 μl/well into a 96 well plate (Greiner) in triplicate for each cell line.
(§4) Affilin® proteins were tested with a concentration of 1 μM, 100 nM, 10 nM, or 1 nM on FAP expressing cells HEK293-hFAP, HEK293-mFAP and Wi38-cells. To exclude an unspecific binding, Affilin® proteins were also incubated on CD26 expressing cells HEK293-hCD26 and HEK293-mCD26 and control cells HEK293-pEntry with the same concentrations. […] Supernatants were removed after 45 min, cells were washed in blocking buffer and 100 μl/well rabbit anti-StrepTag antibody (GenScript; A00626), 1:300 diluted in FACS blocking buffer were added. After removal of the primary antibody, goat anti-rabbit-IgG-Alexa Fluor 488 antibody (Invitrogen; A11008) was applied in a 1:1000 dilution. Flow cytometry measurement was conducted on the Guava easyCyte 5HT device from Merck-Millipore at excitation wavelength 488 nm and emission wavelength 525/30 nm.

hFAP-Fc [2] = target: T2, hFAP-Fc; test: SPR (Sierra SPR-32), hFAP-Fc captured on protein A, 1:1 Langmuir
Description: as §1

hCD26-Fc = target: T4, hCD26-Fc (human, UniProt P27487 29-766, limits assumed); test: SPR, Fc-tagged CD26 captured on protein A
T4 construct: Off-target in SPR; the in-house construct is not described further; also called hCD26-Fc-His; not shown: Fc
Description: as §1

mCD26-Fc = target: T5, mCD26-Fc (mouse, UniProt P28843 29-760, limits assumed); test: SPR, Fc-tagged CD26 captured on protein A
T5 construct: Off-target in SPR; construct not described further; also called mCD26-Fc-His; not shown: Fc
Description: as §1

[3] = target: T6, mCD26 expressed on HEK293-mCD26 cells (mouse, UniProt P28843 1-760); test: flow cytometry on HEK293-mCD26 cells
T6 construct: whole, on cells
Description: as §2, §3, §4

hFAP-Fc [4] = target: T2, hFAP-Fc; test: ELISA on coated hFAP-Fc; Affilin in mouse serum, 0 h
Description: (§5) High binding plates (Greiner, 781061) were immobilized with 2.5 μg/ml hFAP-Fc over night at 4° C. Dilution series of 3 µM to 0.07 PM of Affilin® proteins were incubated in 100% human serum or 100% mouse serum for 24 h at 37° C.
(§6) ELISA-plates were washed three times with PBST (PBS+ 0.1% Tween) and blocked with 3% BSA/0.5% Tween/PBS 1 h at rt. After preincubation for 0 h or 24 h in the presence of serum the dilution series were incubated on ELISA-plates for 30 min at room temperature (rt). Wells were washed with PBST and incubated with biotinylated anti-ubiquitin-antibody (1:300) for 30 min at rt. The binding was visualized with Streptavidin-HRP (1:5.000). […] ELISA analysis confirmed the high stability of FAP binding proteins in serum.

hFAP-Fc [5] = target: T2, hFAP-Fc; test: ELISA on coated hFAP-Fc; Affilin in mouse serum, 24 h at 37° C.
Description: as §5, §6

hFAP-Fc [6] = target: T2, hFAP-Fc; test: ELISA on coated hFAP-Fc; Affilin in human serum, 0 h
Description: as §5, §6

hFAP-Fc [7] = target: T2, hFAP-Fc; test: ELISA on coated hFAP-Fc; Affilin in human serum, 24 h at 37° C.
Description: as §5, §6

hFAP-Fc [8] = target: T2, hFAP-Fc; test: SPR, hFAP immobilized on a CM-5 chip, 1:1 Langmuir (legend of FIG. 1B); hFAP immobilized on a CM-5 chip; legend of FIG. 1B

Chain of hCD26-Fc (P27487 29-766 limits assumed): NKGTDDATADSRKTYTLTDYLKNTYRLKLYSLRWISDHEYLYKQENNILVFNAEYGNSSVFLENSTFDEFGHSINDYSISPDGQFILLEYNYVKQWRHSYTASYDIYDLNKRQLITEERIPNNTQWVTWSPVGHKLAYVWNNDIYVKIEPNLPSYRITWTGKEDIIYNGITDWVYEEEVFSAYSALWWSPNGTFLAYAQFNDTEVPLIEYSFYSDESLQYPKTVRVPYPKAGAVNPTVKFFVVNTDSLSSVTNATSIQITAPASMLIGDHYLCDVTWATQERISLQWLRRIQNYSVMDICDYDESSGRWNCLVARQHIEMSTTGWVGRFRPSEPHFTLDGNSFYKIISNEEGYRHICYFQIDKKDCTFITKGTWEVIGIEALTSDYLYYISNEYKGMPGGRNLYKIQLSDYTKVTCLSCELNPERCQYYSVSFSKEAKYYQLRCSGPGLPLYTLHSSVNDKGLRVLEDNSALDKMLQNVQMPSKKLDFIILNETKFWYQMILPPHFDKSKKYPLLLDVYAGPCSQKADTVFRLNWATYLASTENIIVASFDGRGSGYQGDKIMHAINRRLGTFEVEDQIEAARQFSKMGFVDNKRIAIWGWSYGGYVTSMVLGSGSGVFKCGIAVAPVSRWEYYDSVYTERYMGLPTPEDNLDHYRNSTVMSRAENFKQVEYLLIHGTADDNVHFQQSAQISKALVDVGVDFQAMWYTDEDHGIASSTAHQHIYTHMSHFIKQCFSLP
Chain of mCD26-Fc (P28843 29-760 limits assumed): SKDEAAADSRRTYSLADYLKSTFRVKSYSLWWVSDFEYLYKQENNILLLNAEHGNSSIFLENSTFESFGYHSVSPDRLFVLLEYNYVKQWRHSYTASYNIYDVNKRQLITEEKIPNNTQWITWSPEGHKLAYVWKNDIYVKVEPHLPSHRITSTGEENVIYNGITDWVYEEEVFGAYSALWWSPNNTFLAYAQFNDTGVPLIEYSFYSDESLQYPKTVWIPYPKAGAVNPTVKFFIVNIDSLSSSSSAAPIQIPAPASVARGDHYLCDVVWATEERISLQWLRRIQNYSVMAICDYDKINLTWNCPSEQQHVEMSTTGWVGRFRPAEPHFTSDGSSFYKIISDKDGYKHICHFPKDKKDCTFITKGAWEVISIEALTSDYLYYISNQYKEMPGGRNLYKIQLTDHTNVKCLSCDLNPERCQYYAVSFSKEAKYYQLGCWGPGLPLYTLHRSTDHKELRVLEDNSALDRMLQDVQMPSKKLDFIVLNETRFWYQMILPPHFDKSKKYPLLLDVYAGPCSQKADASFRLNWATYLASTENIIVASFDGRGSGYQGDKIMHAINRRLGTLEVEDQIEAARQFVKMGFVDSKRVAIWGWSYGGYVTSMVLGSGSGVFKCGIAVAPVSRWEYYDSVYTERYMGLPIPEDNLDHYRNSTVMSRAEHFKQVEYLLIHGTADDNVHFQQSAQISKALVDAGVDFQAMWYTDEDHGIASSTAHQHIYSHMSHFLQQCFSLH

Binder	Kd (mFAP-Fc)	Kd (hFAP-Fc [2])	binding result (hCD26-Fc)	binding result (mCD26-Fc)	Kd (hFAP-Fc [4])	Kd (hFAP-Fc [5])	Kd (hFAP-Fc [6])	Kd (hFAP-Fc [7])	Kd (hFAP-Fc [8])	binding result [1]	binding result [3]
Affilin®-219235 (designed binder, Ubiquitin mutein) MQIFVYTMREKQITLEVEPSDTIENVKAKIQDKEGIPPDQQDLKWKGKQLEDGRTLSDYNIFWFPHLTLGLSLRAA	21.6 nM	5.1 nM	no binding	no binding	–	–	–	–	–	no binding (tested: 1 µM, 100 nM, 10 nM, or 1 nM)	no binding (tested: 1 µM, 100 nM, 10 nM, or 1 nM)
Affilin®-217832 (designed binder, Ubiquitin mutein) MQIFVWTRINKLITLEVEPSDTIENVKAKIQDKEGIPPDQQSLYWKGKQLEDGRTLSDYNINIWPNLYLSLRAA	–	3.2 nM	no binding	no binding	0.3 nM	0.7 nM	0.4 nM	0.5 nM	3 nM	no binding (tested: 1 µM, 100 nM, 10 nM, or 1 nM)	no binding (tested: 1 µM, 100 nM, 10 nM, or 1 nM)

Stronger by Kd (hFAP-Fc [2]), values ahead:

Kd (mFAP-Fc)	Kd (hFAP-Fc [2])	binding result (hCD26-Fc)	binding result (mCD26-Fc)	Kd (hFAP-Fc [4])	Kd (hFAP-Fc [5])	Kd (hFAP-Fc [6])	Kd (hFAP-Fc [7])	Kd (hFAP-Fc [8])	Binder	binding result [1]	binding result [3]
5 nM	3 nM	no binding	no binding	–	–	–	–	–	Affilin®-223077 (designed binder, Ubiquitin mutein) MQIFVWTDDWKRITLEVEPSDTIENVKAKIQDKEGIPPDQQVLAWRGKQLEDDRTLSDYNIMVWPNLWLRLRAA	no binding (tested: 1 µM, 100 nM, 10 nM, or 1 nM)	no binding (tested: 1 µM, 100 nM, 10 nM, or 1 nM)
3 nM	2 nM	no binding	no binding	–	–	–	–	–	Affilin®-223078 (designed binder, Ubiquitin mutein) MQIFVWTDDWKRIILEVEPSDTIENVKAKIQDKEGIPPDQQVLAWRGKQLEDSRTLSDYNIMVWPNLWLRLRAA	no binding (tested: 1 µM, 100 nM, 10 nM, or 1 nM)	no binding (tested: 1 µM, 100 nM, 10 nM, or 1 nM)
